In PubChem BioAssay AID2147 (National Center for Advancing Translational Sciences (NCATS), 2009):
Among all 230,000 compounds or so, about 3,600 (1.6%) were called active. Inconclusive results, whose numbers are uncertain, are shown with a selection of clear calls. Calls come from the whole dose curve; as a rule, active = well fitted inhibition curve with a large enough effect (not every such curve was filed as active); inconclusive = small, poorly fitted or top-dose-only effect, or another doubt; inactive = no such curve, though single readings can be large or run the other way. A potency beside an inconclusive call is a rough fit, not a confirmed value.

Biological target: Lysine-specific demethylase 4E (Homo sapiens) (UniProt B2RXH2)
Chain of UniProt B2RXH2 (B2RXH2 whole entry, looked up, the tested form may be a part): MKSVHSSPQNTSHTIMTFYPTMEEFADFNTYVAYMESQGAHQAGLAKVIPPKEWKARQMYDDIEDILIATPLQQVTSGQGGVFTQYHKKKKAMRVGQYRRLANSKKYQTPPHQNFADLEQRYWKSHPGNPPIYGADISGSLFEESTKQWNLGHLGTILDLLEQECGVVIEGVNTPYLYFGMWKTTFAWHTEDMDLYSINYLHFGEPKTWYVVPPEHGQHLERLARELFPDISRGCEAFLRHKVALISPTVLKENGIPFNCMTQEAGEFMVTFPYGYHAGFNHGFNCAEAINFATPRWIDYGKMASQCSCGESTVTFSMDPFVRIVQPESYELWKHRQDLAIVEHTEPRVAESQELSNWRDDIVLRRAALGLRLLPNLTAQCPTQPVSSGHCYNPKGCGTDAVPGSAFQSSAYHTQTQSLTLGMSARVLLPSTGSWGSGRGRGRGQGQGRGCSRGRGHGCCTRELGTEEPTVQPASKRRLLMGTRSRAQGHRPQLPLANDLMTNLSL
Experiment: qHTS Assay for Inhibitors of Human Jumonji Domain Containing 2E (JMJD2E)
Settings: JMJD2E catalytic domain, FDH-coupled NADH fluorescence (FDH is formaldehyde dehydrogenase); series mostly up to 57.1 µM
Note: nearly all actives have a fitted effect of over 50% in size.
Potency is the fitted concentration of half-maximal effect; tags give direction and shape of the fitted curve.

SMILES	Potency
Cc1cc(C)c2nc(NNC(=O)c3cc(-c4cccs4)nc4ccccc34)sc2c1	inconclusive: 31.6 µM [inhibitor, partial curve]
COc1ccc(C2c3c(ncn(CCCO)c3=N)Oc3ccc4ccccc4c32)cc1OC (stereo not given)	inconclusive: 39.8 µM [inhibitor, single point]
O=C(Cc1ccccc1)NC1CCN(S(=O)(=O)c2ccc(C(=O)O)cc2)CC1	inactive
COc1cc(CN2CCC(C(=O)N3CCCC(C)C3)CC2)cc(OC)c1O (stereo not given)	inconclusive: 17.8 µM [inhibitor, partial curve]
O=C1c2ccccc2NC(c2ccccc2)N1/N=C/c1ccccc1 (stereo not given)	inconclusive: 31.6 µM [inhibitor, single point]
COc1ccc(-c2cc(C(F)F)n3ncc(C(=O)Nc4cccc(S(=O)(=O)N5CCOCC5)c4)c3n2)cc1	inconclusive: 39.8 µM [inhibitor, single point]
O=C1CSC(c2cn(-c3ccccc3)nc2-c2cc3ccccc3o2)N1Cc1ccccc1 (stereo not given)	inconclusive: 28.2 µM [inhibitor, partial curve]
COc1ccc(Nc2c([N+](=O)[O-])ccc3c2=NC2(CCCCC2)N=3)cc1	inconclusive: 25.1 µM [inhibitor, single point]
Nc1[nH]n(-c2ccccc2)c(=O)c1N=Nc1ccc2ncsc2c1	inactive
CC(=O)NCc1ccc2[nH]c(C)cc2c1	inconclusive: 17.8 µM [inhibitor, partial curve]
CCn1c(-c2ccc3[nH]c(C)c(C)c3c2)n[nH]c1=S	inconclusive: 39.8 µM [inhibitor, single point]
O=C1CN(C(=O)CSc2nc3cc(Cl)ccc3c(=O)n2Cc2ccccc2)c2ccccc2N1	inactive
Clc1ccccc1Cn1nnc2c(Nc3ccccc3)ncnc21	inconclusive: 39.8 µM [inhibitor, single point]
CNS(=O)(=O)c1cc(C(=O)NCc2ccco2)ccc1Cl	inactive
COc1ccccc1CN1CCNC(=O)C1CC(=O)N(C)Cc1cnccn1 (stereo not given)	inconclusive: 17.8 µM [inhibitor, partial curve, poor fit]
CC1CCN(CC(O)COCCOc2ccc(Br)cc2)CC1 (stereo not given)	inactive
CCOCC(=O)Nc1nnc(COc2ccc(Cl)cc2)s1	inactive
O=[N+]([O-])c1ccc(-c2cnc(SC(c3ccccc3)c3ccccc3)[nH]2)cc1	inactive
COc1ccc(-c2ccc(C#N)c(OC)n2)cc1	inconclusive: 25.1 µM [inhibitor, partial curve]
COc1ccc(-c2ccc([C@H]3[C@@H]4C=CCC[C@@]4(C)C(=O)N3Cc3ccccc3)c(F)c2)cc1	inconclusive: 39.8 µM [inhibitor, single point]
C/C(=N/NC(=O)C1CCCCC1)c1ccc([N+](=O)[O-])cc1	inactive
O=C(Cn1c(=O)c(=O)n(Cc2ccccc2)c2ccc(Cl)cc21)Nc1ccc(F)cc1F	inconclusive: 6.31 µM [inhibitor, single point]
COc1cccc(/C(C#N)=C/c2c(-c3ccc(Cl)cc3)nc3c(C)cccn23)c1	inactive

SMILES	Potency
O=C(c1cc2c(ccc3ccccc32)oc1=O)N1CCCC1	inconclusive: 28.2 µM [inhibitor, partial curve]
NC1=NC(c2ccc(Cl)cc2)C(C(=O)c2ccccc2)N1 (stereo not given)	inactive
CCn1c(Cc2ccccc2)nnc1SCC(=O)Nc1cc(C)on1	inactive
NC(=O)CSc1nnc(-c2ccc(S(=O)(=O)N3CCCCC3)cc2)n1-c1ccccc1	inconclusive: 28.2 µM [inhibitor, single point]
CSc1nc2c(c(=O)[nH]1)C(c1ccccc1)C1=C(CC(C)(C)CC1=O)N2 (stereo not given)	inconclusive: 31.6 µM [inhibitor, partial curve]
COc1ccc(C2C(C#N)=C(N)Nc3nc4ccccc4n32)cc1 (stereo not given)	inconclusive: 25.1 µM [inhibitor, partial curve]
Cc1ccc(S(=O)(=O)N(C)c2ccc(OCC(=O)Nc3nc4c(ccc5ccccc54)s3)cc2)cc1	inconclusive: 25.1 µM [inhibitor, partial curve]
O=C(Nc1ccc2ccccc2c1)N1CCCN(CCOc2ccccc2)CC1	inconclusive: 25.1 µM [inhibitor, single point]
CCn1c(/C=C/c2c(C)[nH]c3ccccc23)nc2ccccc2c1=O	inconclusive: 12.6 µM [inhibitor, partial curve]
Cc1cc(C)n2c(Br)c(CN3CCCC(C)C3)nc2n1 (stereo not given)	inconclusive: 28.2 µM [inhibitor, partial curve]
O=C(Nc1nc2ccccc2[nH]1)c1ccc(F)cc1	inconclusive: 35.5 µM [inhibitor, single point]
CCOC(=O)c1cnc2ccc(OCC)cc2c1NCc1ccccc1OC	inactive
O=S(=O)(c1cccs1)N1CN(CC2CCCO2)c2nc3ccccc3nc21 (stereo not given)	inconclusive: 39.8 µM [inhibitor, single point]
Cc1c(/C=N/Nc2nc3ccccc3[nH]2)c2ccccc2n1C	inconclusive: 35.5 µM [inhibitor, single point]
COc1ccc(/C=N/n2cnc3c([nH]c4ccccc43)c2=O)cc1CO	inconclusive: 31.6 µM [inhibitor, single point]
O=C(CSc1nc2scc(-c3ccco3)c2c(=O)n1-c1ccccc1)NCC1CCCO1 (stereo not given)	inactive
CCCNC(=O)NC1CCCCCCC1	inconclusive: 39.8 µM [inhibitor, single point]
Cc1ccc(-c2ccc(C3C(C#N)=C(N)Oc4n[nH]c(C)c43)o2)cc1 (stereo not given)	inconclusive: 28.2 µM [inhibitor, partial curve]
O=c1oc2c(CN3CCCCCC3)c(O)ccc2cc1-c1nc2ccccc2[nH]1	inconclusive: 28.2 µM [inhibitor, partial curve]
O=C(NCC(=O)N(c1cccnc1)C(C(=O)NC1CCCC1)c1ccc(F)cc1)c1ccco1 (stereo not given)	inactive
CCNC(=S)NNc1nc(N2CCOCC2)nc(N2CCOCC2)n1	inactive
Clc1cccc(CN2CCC(Cc3ccccc3)CC2)c1	inconclusive: 28.2 µM [inhibitor, partial curve]
